Test results reported in the supplement of paper PMC12217912.
The other results are listed elsewhere or left out. Sequences were assembled here from the parent chain. Values near 0.05 are background.

B1: TEV protease; numbered along this chain (parent)
chain: MGESLFKGPRDYNPISSSICHLTNESDGHTTSLYGIGFGPFIITNKHLFRRNNGTLVVQSLHGVFKVKDTTTLQQHLVDGRDMIIIRMPKDFPPFPQKLKFREPQREERICLVTTNFQTKSMSSMVSDTSCTFPSGDGIFWKHWIQTKDGQCGSPLVSTRDGFIVGIHSASNFTNTNNYFTSVPKNFMELLTNQEAQQWVSGWRLNADSVLWGGHKVFMVKPEEPFQPVKEATQL

Variants of: B1
Experiment: raw area under fraction-flipped curve 0-4 h after induction (AUC4h, not background-subtracted), DNA-recorder readout of cleavage of the substrate (dimensionless); higher = more cleavage of the substrate by the protease variant
Details: temperature: 34 °C; time window: 0-4 h after rhamnose induction
Experimental: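 In vivo DNA recorder in E. coli TOP10(DE3) ΔrhaA at 34 °C. Each TEVp single-site mutant (parent TEVp 0) is paired with a single-site variant of the 7-mer TEVs (canonical ENLYFQ|S). The substrate sits between flexible linkers in a Bxb1-sfGFP-TEVs-SsrA fusion, so cleavage stabilises Bxb1 and speeds flipping of a recombination array, read by NGS. The value is the raw area under the fraction-flipped curve over 0-4 h after rhamnose induction (AUC4h), with ≥20 reads per time point. It is not background-subtracted; inactive controls average about 0.047.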
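Note: Bxb1 expression induced with 0.2% (w/v) L-rhamnose at OD600 near 0.5, cultures sampled hourly, flipped fraction per protease–substrate barcode pair counted by paired-end Illumina sequencing.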

Row | Variant | area with substrate ENAYFQS | area with substrate ENDYFQS | area with substrate ENFYFQS | area with substrate ENHYFQS | area with substrate ENKYFQS | area with substrate ENMYFQS | area with substrate ENQYFQS | area with substrate ENTYFQS | area with substrate ENEYFQS | area with substrate ENGYFQS | area with substrate ENNYFQS | area with substrate ENPYFQS | area with substrate ENSYFQS | area with substrate ENVYFQS | area with substrate ENRYFQS | area with substrate ENWYFQS | area with substrate ENCYFQS | area with substrate ENYYFQS | area with substrate ENIYFQS
1 | K66N | 0.066 | 0.0615 | 0.0687 | 0.0453 | 0.0525 | 0.0597 | 0.0552 | 0.0588 | – | – | – | – | – | – | – | – | – | – | –
2 | V67F | 0.0546 | 0.0699 | 0.0382 | 0.0614 | – | 0.0713 | 0.0557 | – | 0.0668 | 0.0638 | 0.0393 | 0.0704 | 0.0474 | 0.0905 | – | – | – | – | –
3 | V67I | 0.0466 | 0.061 | – | – | – | – | 0.0566 | – | – | – | – | – | 0.0431 | – | 0.0561 | 0.002 | – | – | –
4 | V67K | 0.0608 | 0.0571 | 0.05 | 0.0626 | – | 0.0502 | 0.0549 | 0.0479 | – | 0.066 | 0.0609 | 0.0507 | 0.0579 | – | 0.0166 | 0.0641 | – | – | –
5 | V67N | 0.0633 | 0.0497 | 0.0096 | – | – | 0.0677 | 0.0632 | – | – | 0.0433 | – | – | 0.0509 | – | 0.0534 | – | 0.0507 | 0.059 | –
6 | V67P | 0.0421 | 0.0496 | 0.0506 | 0.0415 | 0.0533 | 0.0244 | 0.0414 | – | 0.0361 | – | 0.0432 | 0.0792 | 0.0456 | 0.0512 | 0.0376 | 0.0042 | 0.0504 | – | 0.0591
7 | K68D | 0.0678 | – | – | 0.0913 | 0.0405 | – | 0.0665 | 0.0736 | 0.0681 | 0.0698 | 0.0582 | 0.0421 | – | – | 0.0629 | – | – | – | –
8 | K68G | 0.0677 | 0.0551 | 0.0554 | 0.0523 | – | 0.0724 | 0.0617 | – | 0.0504 | 0.059 | 0.0606 | 0.0563 | 0.0706 | 0.0773 | 0.0445 | 0.0634 | 0.0619 | – | –
9 | K68H | 0.0641 | – | 0.0593 | – | – | – | 0.0786 | 0.0669 | 0.0525 | 0.0484 | 0.0799 | – | 0.0595 | 0.0684 | 0.033 | – | – | 0.0409 | 0.12
10 | K68W | 0.0468 | – | 0.064 | – | – | 0.0789 | 0.0638 | – | 0.059 | – | 0.0724 | 0.0667 | 0.0518 | 0.0773 | 0.0485 | – | 0.0646 | 0.0612 | 0.0994
11 | D69K | 0.0509 | – | 0.0596 | – | – | 0.0661 | 0.0607 | – | – | – | 0.058 | – | 0.121 | – | – | – | – | – | –
12 | D69Y | 0.0517 | 0.0518 | 0.0626 | – | 0.0697 | 0.0908 | – | – | – | 0.0631 | 0.0591 | 0.0542 | 0.0585 | – | 0.0637 | – | – | – | –
13 | T70K | 0.0578 | 0.0628 | 0.0672 | – | – | – | 0.07 | – | – | 0.0578 | – | – | – | – | – | – | – | 0.0668 | –
14 | T70N | 0.0426 | 0.0622 | – | – | 0.0557 | 0.0443 | 0.0556 | 0.0859 | 0.0692 | 0.0357 | – | – | – | 0.0565 | 0.047 | – | – | – | 0.0863
15 | T70P | 0.0515 | 0.0583 | 0.0665 | – | 0.0754 | – | 0.0631 | 0.0594 | 0.0572 | 0.0478 | 0.0475 | – | 0.0597 | – | – | 0.0569 | 0.0561 | – | –
16 | T71G | 0.0697 | 0.0606 | 0.0534 | 0.0559 | 0.0331 | – | – | 0.0648 | 0.0559 | 0.0731 | 0.0582 | 0.0562 | 0.0855 | 0.0628 | – | 0.0471 | – | 0.0594 | 0.0838
17 | T71N | 0.0442 | – | – | – | 0.0678 | 0.0736 | 0.0591 | 0.0878 | 0.0644 | – | 0.0507 | 0.0465 | 0.0584 | – | – | – | – | 0.0579 | –
18 | T71Q | 0.0503 | 0.0631 | – | – | 0.0475 | 0.0972 | 0.0888 | – | 0.053 | 0.052 | – | – | 0.0408 | – | 0.0595 | – | – | – | –
19 | L73C | 0.0581 | – | 0.071 | 0.0693 | 0.0738 | 0.07 | 0.0746 | 0.0626 | 0.0602 | – | 0.0587 | – | 0.0587 | – | 0.0652 | – | 0.0609 | 0.0446 | –
20 | L73D | 0.0595 | 0.0483 | 0.0516 | 0.0487 | 0.0409 | – | 0.0553 | 0.0523 | 0.0435 | 0.0434 | – | – | – | 0.0453 | 0.0505 | – | 0.0365 | – | –
21 | L73H | 0.0635 | 0.0515 | – | 0.0469 | – | – | 0.0522 | 0.0427 | 0.0282 | – | – | 0.0546 | 0.0436 | 0.0694 | 0.0435 | – | – | 0.0284 | –
22 | Q74A | 0.0642 | 0.0646 | 0.0621 | – | 0.0693 | 0.0776 | 0.0561 | – | 0.067 | 0.0751 | 0.0714 | 0.0716 | 0.0515 | 0.027 | 0.0476 | – | 0.0663 | – | 0.0918
23 | Q74K | 0.0393 | 0.0665 | 0.0422 | – | – | 0.0763 | 0.0533 | – | 0.0498 | – | 0.0631 | 0.0448 | 0.0736 | 0.0724 | 0.0587 | 0.0773 | – | 0.0583 | 0.129
24 | Q74M | 0.0566 | 0.0577 | – | – | 0.0631 | – | 0.0558 | 0.0715 | 0.0593 | 0.0623 | 0.0633 | – | 0.0623 | 0.131 | – | 0.0448 | 0.0533 | 0.0643 | –
25 | Q75I | 0.0602 | 0.0602 | 0.0771 | 0.0648 | – | – | 0.0505 | – | 0.0588 | – | 0.0666 | – | 0.0629 | 0.0729 | – | 0.051 | 0.0694 | – | –
26 | H76K | 0.0766 | 0.0618 | 0.0648 | 0.0572 | 0.0697 | – | 0.0621 | – | 0.0638 | 0.0454 | 0.0725 | 0.0703 | 0.0584 | 0.0578 | 0.0658 | – | 0.0687 | 0.064 | –
27 | H76V | 0.0645 | – | 0.073 | 0.0465 | – | – | – | 0.0516 | 0.0393 | 0.0485 | – | – | 0.0586 | 0.0528 | – | – | 0.0536 | – | 0.108
28 | L77C | 0.0844 | – | – | 0.0608 | – | 0.0813 | 0.0566 | – | 0.0429 | – | 0.0449 | – | – | 0.0687 | 0.0598 | – | 0.0555 | 0.0491 | 0.0727
29 | L77Q | 0.0684 | 0.061 | 0.0793 | 0.0695 | 0.0751 | – | 0.061 | 0.0604 | 0.0643 | 0.0208 | 0.059 | 0.0458 | 0.0515 | 0.0524 | 0.0629 | – | 0.0612 | – | 0.0456
30 | V78L | 0.0443 | 0.0596 | 0.0611 | – | – | – | – | 0.0705 | 0.0631 | – | 0.057 | – | – | – | – | 0.0472 | 0.0688 | – | –
